Drawing on the supplement of paper PMC9446081, this text covers relative growth for 57 compounds.

Among all 39,000 compounds or so, about 220 (0.56%) showed activity. The list shows a part of the results.
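Further: static incubation at 37 °C against the wild-type strain, values averaged over two biological replicates.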

The assay concerns Escherichia coli K-12 BW25113. Description: relative growth (OD600 normalised to plate interquartile mean) (fraction); higher = less growth inhibition, active = 0.2 or less. The conditions noted are these: 50 µM; LB; incubation time: overnight (16-24 h).
As to `COc1ccc(NC(=O)Nc2ccc3c(c2)C(=O)N([C@@H](C)CO)C[C@@H](C)[C@H](CN(C)C(=O)Nc2c(C)noc2C)OCCCC[C@H](C)O3)cc1`, the relative growth was inactive: 1.03.
With `[N-]=[N+]=Nc1ccccc1C[C@@]1(C(=O)NC[C@@H](O)CO)N=C(c2ccc(OCCCO)cc2)O[C@@H]1c1ccccc1` the figure was inactive: 1.
Turning to `C[C@@H]1CN([C@@H](C)CO)C(=O)Cc2cc(NC(=O)Cn3cnnn3)ccc2O[C@H]1CN(C)S(=O)(=O)c1cccs1`, the relative growth is inactive: 1.01.
With `COC(=O)C1CCN(S(=O)(=O)c2c(C)n(C)c(=O)n(C)c2=O)CC1`, the relative growth is inactive: 1.04.
In the case of `C[C@H](CO)N1C[C@H](C)[C@H](CN(C)C(=O)c2cnccn2)Oc2ncc(C#Cc3ccccn3)cc2C1=O`, the relative growth was inactive: 0.995.
With `C[C@@H]1CCCCO[C@@H](CN(C)C(=O)c2ccccc2)[C@@H](C)CN([C@H](C)CO)C(=O)c2cc(NC(=O)CCC(F)(F)F)ccc2O1`, the relative growth was inactive: 0.986.
To `O=C1OC(c2cc(I)c(O)c(I)c2)(c2cc(I)c(O)c(I)c2)c2ccccc21` belongs inactive: 0.99; to `COc1ccc(S(=O)(=O)N(C)C[C@@H]2Oc3ccc(NC(=O)CCCN(C)C)cc3C(=O)N([C@H](C)CO)C[C@@H]2C)cc1`, inactive: 0.98.
As for `CN1CCN(c2nc3c(c(=O)[nH]c(=O)n3C)n2CC(=O)c2ccc(Cl)cc2)CC1`, the relative growth is inactive: 1.02.
With `COc1ccc(NC(=O)N(C)C[C@@H]2Oc3ncc(C#C[C@@H](C)O)cc3C(=O)N([C@@H](C)CO)C[C@@H]2C)cc1` the figure was inactive: 0.968; with `C[C@@H]1CCCCO[C@H](CN(C)C(=O)Nc2ccc(F)cc2)[C@@H](C)CN([C@H](C)CO)C(=O)c2cc(NS(=O)(=O)c3cccs3)ccc2O1`, inactive: 1.02; with `C[C@@H]1CN([C@H](C)CO)C(=O)c2cccc(NS(=O)(=O)c3cn(C)cn3)c2O[C@H]1CN(C)S(=O)(=O)c1ccc(Cl)cc1`, inactive: 0.999.
On to `C[C@@H]1CN([C@H](C)CO)C(=O)Cc2cc(NC(=O)Nc3ccccc3)ccc2O[C@@H]1CN(C)Cc1ccc(Cl)c(Cl)c1`, for which the relative growth was inactive: 1.01.
To `CC(CN1c2ccccc2Sc2ccccc21)N(C)C.Cl` (configuration not stated) belongs inactive: 0.837.
Turning to `C[C@@H]1CCCCO[C@@H](CN(C)Cc2ccccc2)[C@H](C)CN([C@H](C)CO)C(=O)c2cc(NC(=O)Nc3ccccc3)ccc2O1`, the relative growth is inactive: 0.981.
As to `C[C@H](CO)N1C[C@H](C)[C@@H](CN(C)C(=O)C2CCCCC2)OCCCC[C@H](C)Oc2ccc(NS(=O)(=O)c3ccc(Cl)cc3)cc2C1=O`, the relative growth was inactive: 0.999.
To `C[C@H](CO)N1C[C@H](C)[C@H](CN(C)Cc2ccc3c(c2)OCO3)Oc2ccc(NC(=O)Cn3cnnn3)cc2CC1=O` belongs inactive: 0.967; to `Cc1cc(C(=O)Nc2cccc3c2O[C@H](CN(C)C(=O)Nc2ccccc2)[C@H](C)CN([C@H](C)CO)C3=O)n(C)n1`, inactive: 1.
To `COc1ccc(S(=O)(=O)N(C)C[C@@H]2Oc3ccc(NC(=O)Cn4cnnn4)cc3CC(=O)N([C@H](C)CO)C[C@H]2C)cc1` belongs inactive: 0.988.
In the case of `O=C(CN1CCOCC1)NCC[C@H]1CC[C@@H](NC(=O)c2ccc3c(c2)OCO3)[C@H](CO)O1`, the relative growth is inactive: 1.01.
With `C[C@H]1CN([C@@H](C)CO)C(=O)c2cccc(NC(=O)C3CCOCC3)c2O[C@@H]1CN(C)Cc1ccc2c(c1)OCO2` the figure was inactive: 1.01; with `C[C@H](CO)N1C[C@H](C)[C@@H](CN(C)C(=O)Nc2ccccc2)OCCCC[C@H](C)Oc2ccc(NS(=O)(=O)c3ccc(F)cc3)cc2C1=O`, inactive: 0.987; with `COCC#Cc1ccc2c(c1)O[C@H](CN(C)C(=O)COC)[C@@H](C)CN([C@H](C)CO)S2(=O)=O`, inactive: 0.989.
For the compound `C[C@@H]1CN([C@@H](C)CO)C(=O)c2cccc(NS(=O)(=O)c3ccccc3)c2O[C@@H]1CN(C)S(=O)(=O)c1ccc(F)cc1`, the relative growth was inactive: 1.02.
With `COc1ccc(COC[C@@]23Oc4ccccc4[C@@H](NC(=S)N2C)[C@H]3CO[Si](C)(C)C(C)(C)C)cc1` the figure was inactive: 1.01.
For the compound `C[C@@H]1CN([C@@H](C)CO)C(=O)Cc2cc(NS(C)(=O)=O)ccc2O[C@@H]1CN(C)Cc1ccc(C(=O)Nc2ccccc2N)cc1`, the relative growth is inactive: 1.01.
To `C[C@H]1CN([C@@H](C)CO)C(=O)CCCn2nncc2CO[C@@H]1CN(C)S(=O)(=O)c1ccc2c(c1)OCCCO2` belongs inactive: 1.01.
With `C[C@H](CO)N1C[C@H](C)[C@H](CN(C)Cc2ccccc2)OCCCC[C@H](C)Oc2ccc(NC(=O)Nc3ccccc3)cc2C1=O` the figure was inactive: 0.972; with `C[C@H](CO)N1C[C@H](C)[C@@H](CN(C)Cc2ccc(C(F)(F)F)cc2)Oc2ccc(NC(=O)Nc3ccc4c(c3)OCO4)cc2C1=O`, inactive: 1.03; with `Cc1noc(C)c1NC(=O)N(C)C[C@H]1OCCCC[C@H](C)Oc2ccc(NC(=O)Cc3ccccc3)cc2C(=O)N([C@@H](C)CO)C[C@H]1C`, inactive: 0.994.
To `CCS(=O)(=O)N1C[C@]2(C1)CN([C@H](CO)c1c2c2ccc(cc2n1C)OC)C(=O)c1ccc(cc1)F` belongs inactive: 1.01; to `COc1ccc2c3c([nH]c2c1)[C@@H](CO)N(C[C@]13CCN(CCc2ccccc2)CC1)C(=O)CN1CCOCC1`, inactive: 1.03.
For the compound `CC(C)NC(=O)N(C)C[C@H]1OCCCC[C@H](C)Oc2ccc(NC(=O)Nc3cccc4ccccc34)cc2C(=O)N([C@@H](C)CO)C[C@H]1C`, the relative growth is inactive: 1.03.
With `CC(C)CC#Cc1cnc2c(c1)C(=O)N([C@H](C)CO)C[C@H](C)[C@@H](CN(C)S(=O)(=O)c1ccccc1)O2`, the relative growth was inactive: 1.02.
Regarding `Cc1cc(C(=O)Nc2cccc3c2O[C@@H](CN(C)C(=O)Nc2ccccc2)[C@H](C)CN([C@H](C)CO)C3=O)n(C)n1`, the relative growth was inactive: 1.
With `C[C@@H]1CCCCO[C@H](CN(C)Cc2ccccc2)[C@H](C)CN([C@@H](C)CO)C(=O)c2cc(NC(=O)Nc3cccc4ccccc34)ccc2O1`, the relative growth is inactive: 1.02.
With `C[C@H]1CN([C@@H](C)CO)C(=O)c2cc(NC(=O)Cc3ccccc3)ccc2O[C@@H]1CN(C)Cc1ccc(-c2ccccc2)cc1` the figure was inactive: 0.949.
To `Cc1ccc(S[C@]2(C(=O)O)CC(=O)N(Cc3ccccc3Cl)[C@@H]2c2ccc(CO)cc2I)cc1` belongs inactive: 0.861.
`COc1ccc(CN(C)C[C@H]2Oc3ccc(NC(=O)Nc4ccc(C(F)(F)F)cc4)cc3C(=O)N([C@@H](C)CO)C[C@H]2C)cc1`: the relative growth was inactive: 0.94.
With `CC(C)NC(=O)N(C)C[C@@H]1Oc2ccc(NS(=O)(=O)c3ccc(Cl)cc3)cc2CC(=O)N([C@@H](C)CO)C[C@H]1C` the figure was inactive: 1.01.
Regarding `COc1ccc(CN(C)C[C@H]2OCCCC[C@H](C)Oc3ccc(NC(=O)Nc4ccc(F)cc4)cc3C(=O)N([C@H](C)CO)C[C@H]2C)cc1`, the relative growth is inactive: 0.983.
With `C[C@@H]1CN([C@H](C)CO)C(=O)c2cccc(NC(=O)c3cnccn3)c2O[C@H]1CN(C)C(=O)Nc1ccc(F)cc1` the figure was inactive: 0.998; with `C[C@@H]1CN([C@H](C)CO)C(=O)c2cc(C#CCN(C)C)cnc2O[C@@H]1CN(C)S(C)(=O)=O`, inactive: 0.955.
To `C[C@@H]1CN([C@H](C)CO)C(=O)c2cc(C#Cc3ccc(F)cc3)cnc2O[C@H]1CN(C)CC1CCOCC1` belongs inactive: 0.998; to `C=CCOC(=O)[C@@H]1[C@H]2C(=O)O[C@H](c3ccccc3)[C@H](c3ccccc3)N2[C@H](c2ccc(OCCOC(=O)[C@H]3C[C@H]4C(=O)N[C@@H](CCCCN(C)C)C(=O)N4[C@H]3c3cccc(OCCO)c3)cc2)[C@@]12C(=O)Nc1ccccc12`, inactive: 0.984.
With `O=C(O)CN(CCN(CC(=O)O)CC(=O)O)CC(=O)O` the figure was inactive: 0.949.
Consider `C[C@@H]1CN([C@H](C)CO)C(=O)Cc2cc(NC(=O)CCCCCC(=O)Nc3ccccc3N)ccc2O[C@H]1CN(C)S(C)(=O)=O`, for which the relative growth was inactive: 0.979.
To `CO[C@@H]1CN(C)C(=O)c2cc(NC(=O)Nc3cccc(Cl)c3)ccc2OC[C@H](C)N(C(=O)Nc2c(C)noc2C)C[C@H]1C` belongs inactive: 0.996; to `C[C@@H]1CN([C@@H](C)CO)C(=O)c2cc(NS(=O)(=O)c3ccc(Cl)cc3)ccc2O[C@H]1CN(C)Cc1ccc(C(F)(F)F)cc1`, inactive: 1.04; to `CN1CCN(C(=O)C[C@H]2C=C[C@H](NC(=O)Nc3ccccc3F)[C@@H](CO)O2)CC1`, inactive: 0.998.
To `CCS(=O)(=O)N1CC[C@]2(CC1)CN([C@H](CO)c1[nH]c3cc(ccc3c12)OC)S(=O)(=O)c1cn(cn1)C` belongs inactive: 0.988; to `C[C@H](CO)N1C[C@H](C)[C@@H](CN(C)CC2CCCCC2)Oc2ccc(NC(=O)CCCCCC(=O)Nc3ccccc3N)cc2C1=O`, inactive: 0.964.
To `C[C@@H]1CN([C@@H](C)CO)C(=O)c2cc(NC(=O)c3ccccc3)ccc2O[C@@H](C)CCCCO[C@@H]1CN(C)Cc1ccc2c(c1)OCO2` belongs inactive: 1.04.
For `Cc1ccc(S(=O)(=O)Nc2ccc3c(c2)C(=O)N([C@H](C)CO)C[C@H](C)[C@@H](CN(C)C(=O)C2CCCCC2)OCCCC[C@H](C)O3)cc1`, the relative growth is inactive: 0.998.
With `COc1ccc(C#Cc2ccc3c(c2)O[C@H](CN(C)C(=O)c2ccccn2)[C@@H](C)CN([C@H](C)CO)S3(=O)=O)cc1`, the relative growth was inactive: 0.995.
For the compound `C[C@@H]1CCCCO[C@H](CN(C)C(=O)Nc2cccc3ccccc23)[C@H](C)CN([C@@H](C)CO)C(=O)c2cc(NC(=O)Nc3cccc4ccccc34)ccc2O1`, the relative growth was inactive: 1.03.
With `COCC#Cc1ccc2c(c1)O[C@@H](CN(C)S(=O)(=O)c1ccc(C)cc1)[C@H](C)CN([C@H](C)CO)S2(=O)=O`, the relative growth was inactive: 1.02.
